This is an account of results in the supplement of paper PMC12632987.

The full ranking holds about 1,800 sequences; the median of “median log2 fold change of GCK-ALFA target abundance (FLAG IP / Myc IP barcode read proportion)” is about 0.14, and the lowest 2% start at about -0.84. This is one part of the list.

B1: traf2_out_12_50_983 (protein)
chain: SEEEEEEEEEEEERERILAMADRAEALVDAHRGDPEAAVAAIIERLRSGEISIEEAWIMRSLLARAMRREGLPDERILALHERLEAAILEREEELDELEE
B2: traf2_out_12_187_962 (protein)
chain: SVEEELLEAAKAGVKRALKALEEAAPKDERFKELLKKLKELEKLYEKDPSIASDLLVAASAILRAVRLFEAGLPQAEIDAAIAEAQKILDEALKEAEKRQ
B3: traf2_out_6_3_2505 (protein)
chain: EEEEERRRNEEAFEELAEMSIETLKTALQTELDRLKALVADPNASESDVLAHASAANLLLEVLKKNAEKNPETKEETEKFIKEAEEEREKLMAEWEAKRA
B4: traf2_out_20_3_2126 (protein)
chain: EELEKQLEKELERALKLLKEAAEKSDPETAKRLKELIKRLKESRSLSPSDRLVVVSEVRREVRRLAEEARRRGDEELAKILEEAADELNRAAQLLYEIEK
B5: traf2_out_13_95_1051 (protein)
chain: SKETAEKINEVADEMEDKALELLDKAQKEVADDPEASAVMTEAKRLAEKKGISEAIHLLKEAQKAMPEHKELFEKLIKELEELRREAGRKVAEILKEEKE
B6: traf2_out_3_77_2278 (protein)
chain: AEAEEEARERLDEATTEAIASLFVLAINRPEKAEKYREMAARLHRAANVAKEAGAEEEFLPLVEALLEAAKALNDGDEEAEKKIEELLAEIEARAAALRA
B7: traf2_out_14_17_1294 (protein)
chain: EIIEELKEIEERARELAEKLPELALELGRLLRLARSALVLAEMYEEDPSYKPELIEALNNLEKETKEVAKKVEPISAEAKKELEEMEKRARKILEKVKAE
B8: traf2_out_13_95_1224 (protein)
chain: SAEANEKLRQVSNDMLDKAEAIIDELEAKLAPYPEMAPAMAAIRAALRNNGIRQAIAVLRQAAKEHPEVAADLNAAAEQLEAVRRDAGKKVAEILKEEEE
B9: traf2_out_18_167_1864 (protein)
chain: MEELKKEYEKKTDELVRVSDIRRALREALLALEESREKAKALLEKKLEEHPDSEVLKEALEVAETKSPEEFKAFLEEKIEELQKEANKLYKELEKLKKEM
B10: traf2_out_15_180_1318 (protein)
chain: MTEEELKKRIELANEVSDKVQDKLDALLAANPSLSPEEKAALRALARALTTLYLNGEWAEADAALARAEARLSPEAAAVARELAAFARKVVEEAKKKLAE
B11: traf2_out_20_3_2092 (protein)
chain: EELLKELEKALEEAEKLIKEAIKLADEETAKKLEKLLKRLKEARELPLDEQLVALSEVRRELLELAEKARKEGKEELAKILEEAAEKVNRAMNLAYKIIE
B12: traf2_out_17_162_1624 (protein)
chain: SPLEERLRELERRLEELEKKLEELTKKAENIDKLSKEELTDLLVEASEARREARELAEEIRRLREEENDPRLDELLRRAEELAEEFQRIANLFYNKLLEL
B13: traf2_out_17_178_1731 (protein)
chain: SREEILKKISEKADELLDTNKEAMDELRKIAEKEGVLTPELREKLDAVHRNANLYALEEVFDEVIEKTKSKEEVEKLKEETSKKMRELNKEIQALVEELE
B14: traf2_out_1_27_988 (protein)
chain: SEEEFTALVKEASRKIAEATPEEAIKIAKETLRELHAAGNPDIGLAAVVLVTSVKTREDAEKLIEAIAETLRELGVSEEEIARIRRQMETAVELLFKALE
B15: traf2_out_17_162_1484 (protein)
chain: AALEAELAALEAELAELKKKLEELEEKTKKLEEMSKEELTDLLVEASELRRRALELAERIAALAPLIGEERAGALRDEALAIAERLQRIANKIYKELEKK
B16: traf2_out_18_3_1915 (protein)
chain: SEEERKKISEKIDEIVDEATAKAREALKRGKEKYPEFKAEFERLEADLEAGAGPFGILEALAELFKEAGDEEEAEELEKFLREKRKEFQKLVDEYEKLLK
B17: traf2_out_6_166_2475 (protein)
chain: DEEILERIREVVKEFSKFSPEDIIEAFEILAEERDDERALMARQLASGVRQGQKAGLPVETILSAFADGMLALGVPAEDILELLEEALKIVKEIEKEKKE
B18: traf2_out_17_162_1643 (protein)
chain: GEFEKELKELEEELEELEKRVEELEEKTKTIKSYSKEELSDLIVEASEVKRRALELLQRIEKLKEKLPKEKYEELKERAEEIIRRAQRVANEFYKEREAK
B19: traf2_out_11_131_665 (protein)
chain: MDAVAIAKSVAERVRERLEIAKTLSPEERHRLALRALDSIEAVAEYLTKHVDKMSKEDIEEAVKILRKTVEEIVALDPSVAPEAKEVLKALEKLEKAAKE
B20: traf2_out_3_89_2310 (protein)
chain: GAERERTIEEMRREMERYIRGFRKSAERVAKEMLEDGMSLETLRGVLEAAKSALLEVLRERMRERGLSEEEIEELLEEAGRELDKVVEEVVAEAEERRKA
B21: traf2_out_11_131_663 (protein)
chain: MDAVAIAESVAERVDERLELAKSLSPEERTRLAEQSLDTLEAVAEYLKKHVSEMSKEDIEKAVKILRESAEKILALDPSVAEQVEEVKKALEELLKEAEK
B22: traf2_out_16_104_1393 (protein)
chain: EEERKAEFEAIRKRLEEIAERAGRIANEAYKLYLKASPEKKKELSDLMVEASELRREALLAAQEVEEALRTGGDLEEAKKRLERLEKRLKEIEKKLEELK
B23: traf2_out_5_63_2367 (protein)
chain: SAREKERKELTEEAREAEKVVLEALKLSEEEAKKLVEEAIEKGLNVNLIAGMFRAHARFLRLQGGPEEEIEKAERLAEYARELGRRREAEAAAAAAAAAA
B24: traf2_out_17_162_1642 (protein)
chain: SMAEEFRERLEKKLEELEKKLEELKKKSEEIDKYSKEELSDLIVEASELRREARELIVEIEKNKELLDPEEYERLKKKAEEIAEELNRIAQKFYDKYLKL
B25: traf2_out_1_71_1752 (protein)
chain: SPEAEKAEKALEDMAKSIAEGMKTEEALERYLEAFRNHIKRVKALAKANKDDEAVKAGSIADLNLEAELLEKIAKYVDEESKKKLEELAKEAKKAAEEIK
B26: traf2_out_8_144_2542 (protein)
chain: HMSKREIANRLANALVKLDELIKEADEETKEILTKARRHVGQALNLVVFGGDKEEIIEELEKAIKYLEEAIKKVKDNPELKKKVQEIKKELEEILKDVKE
B27: traf2_out_12_187_958 (protein)
chain: SNREELLRAAEAGVAQALAALERRAPEHPAFRRLLERLRELAELMRRHPEIASDALVAASAILRAIRLFEAGADPALVEAALAAAERTLEEALARARELE
B28: traf2_out_11_79_936 (protein)
chain: EEKRQELLKKLEEALKLLKELLEKMKAGTISEEERKEMLDEIERLLQRAAQLALELGLSDTLVEISEAKRHVRLAYSGDLEALEKAIKELEEAIKLVEEA
B29: traf2_out_17_35_1755 (protein)
chain: MTPIEKEREIASEIADKILEESDKLNKELDKVYEETKDKKAVVDKTKEILDKYGIGEEEKELLDEHYKTGNDEEILAFSHELIRRAVGEKYGKKYAEALK

For the experiment, the target named is T1, TRAF2, Q12933.
T1 chain: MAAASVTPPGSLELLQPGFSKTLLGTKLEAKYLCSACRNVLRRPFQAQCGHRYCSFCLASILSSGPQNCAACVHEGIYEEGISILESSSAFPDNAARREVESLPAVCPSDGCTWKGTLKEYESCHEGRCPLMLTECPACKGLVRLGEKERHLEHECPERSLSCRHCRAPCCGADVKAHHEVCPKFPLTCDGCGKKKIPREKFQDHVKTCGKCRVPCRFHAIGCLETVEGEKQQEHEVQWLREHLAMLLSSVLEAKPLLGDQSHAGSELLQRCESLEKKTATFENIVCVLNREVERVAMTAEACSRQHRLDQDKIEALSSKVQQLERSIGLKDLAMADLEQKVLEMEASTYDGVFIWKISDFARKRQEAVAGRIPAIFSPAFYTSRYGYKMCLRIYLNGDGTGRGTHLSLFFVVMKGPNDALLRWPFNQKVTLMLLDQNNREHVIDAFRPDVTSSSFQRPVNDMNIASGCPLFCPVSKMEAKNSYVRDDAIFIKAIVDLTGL
Nature of the experiment: median log2 fold change of GCK-ALFA target abundance (FLAG IP / Myc IP barcode read proportion) (log2 ratio); each designed protein is fused to an ALFA-tag nanobody in HEK293 cells to bring the named protein to FLAG-tagged glucokinase (GCK); Myc marks an untargeted standard; higher = target protein stabilised (more abundant). The settings on record: target protein: 3xFLAG-MCP-GCK-ALFA reporter; HEK293 landing pad (RPLP). Summed up: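 Sequencing of reverse-transcribed, amplified circular RNA barcodes from anti-FLAG and anti-Myc immunoprecipitates provided the readout for an ALFA-nanobody-fused binder library recombined into HEK293 landing-pad cells. Those cells were induced with 2 μg mL^−1 doxycycline, transfected with a plasmid expressing a FLAG-tagged target and a Myc-tagged standard, and lysed after 48 h. Target abundance is the per-binder median log2 ratio of FLAG to Myc barcode read proportions. Only barcodes at a proportion of ≥10^−7 in both replicates and binders with ≥3 barcodes per replicate were kept, with a 10^−6 pseudocount added before the two replicates were pooled.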
Regarding B1, the “median log2 fold change” value was -0.258. On to B2, for which the “median log2 fold change” value amounted to 0.267. As for B3, the “median log2 fold change” value is 0.248. In the case of B4, the “median log2 fold change” value was -0.375. B5: the “median log2 fold change” value is 0.15.

For B6, the “median log2 fold change” value was 0.259.

With B7, the “median log2 fold change” value worked out at 0.286.

For B8, the “median log2 fold change” value came to 0.285. In the case of B9, the “median log2 fold change” value turned out to be 0.415. The value for B10 was -0.216; that for B11 was 0.0786. Turning to B12, the “median log2 fold change” value turned out to be 0.219. As to B13, the “median log2 fold change” value was determined as 0.639. On to B14, for which the “median log2 fold change” value turned out to be 0.261.

Turning to B15, the “median log2 fold change” value was 0.262. For the molecule B16, the “median log2 fold change” value was 0.219.

In the case of B17, the “median log2 fold change” value was 0.00718.

Take B18: the “median log2 fold change” value is 0.249. B19: the “median log2 fold change” value was 0.0144.

Regarding B20, the “median log2 fold change” value was -1.13. Regarding B21, the “median log2 fold change” value was determined as 0.292.

For B22, the “median log2 fold change” value stood at 0.0972. B23: the “median log2 fold change” value is -0.724.

Regarding B24, the “median log2 fold change” value is 0.252.

In the case of B25, the “median log2 fold change” value is -0.948. On to B26, for which the “median log2 fold change” value was -0.102. Regarding B27, the “median log2 fold change” value was 0.172. For the molecule B28, the “median log2 fold change” value was 0.397.

For B29, the “median log2 fold change” value came out at 0.546.
